# Experimental data reported in PMC4336329 (PLoS ONE, 2015).
# Among all 310,000 compounds or so, about 14,000 (4.5%) showed an effect of 50% or more. Effects have a minus sign here. This is one part of the list.
# Biological target: human ether-à-go-go-related gene (hERG) potassium channel (human, UniProt Q12809)
# Assay: primary screen, population patch clamp on CHO cells stably expressing hERG
# 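Also: peak tail current of the secondary pulse compared with the same well before compound.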
# Sequence of human ether-à-go-go-related gene (hERG) potassium channel (Q12809 whole entry, looked up): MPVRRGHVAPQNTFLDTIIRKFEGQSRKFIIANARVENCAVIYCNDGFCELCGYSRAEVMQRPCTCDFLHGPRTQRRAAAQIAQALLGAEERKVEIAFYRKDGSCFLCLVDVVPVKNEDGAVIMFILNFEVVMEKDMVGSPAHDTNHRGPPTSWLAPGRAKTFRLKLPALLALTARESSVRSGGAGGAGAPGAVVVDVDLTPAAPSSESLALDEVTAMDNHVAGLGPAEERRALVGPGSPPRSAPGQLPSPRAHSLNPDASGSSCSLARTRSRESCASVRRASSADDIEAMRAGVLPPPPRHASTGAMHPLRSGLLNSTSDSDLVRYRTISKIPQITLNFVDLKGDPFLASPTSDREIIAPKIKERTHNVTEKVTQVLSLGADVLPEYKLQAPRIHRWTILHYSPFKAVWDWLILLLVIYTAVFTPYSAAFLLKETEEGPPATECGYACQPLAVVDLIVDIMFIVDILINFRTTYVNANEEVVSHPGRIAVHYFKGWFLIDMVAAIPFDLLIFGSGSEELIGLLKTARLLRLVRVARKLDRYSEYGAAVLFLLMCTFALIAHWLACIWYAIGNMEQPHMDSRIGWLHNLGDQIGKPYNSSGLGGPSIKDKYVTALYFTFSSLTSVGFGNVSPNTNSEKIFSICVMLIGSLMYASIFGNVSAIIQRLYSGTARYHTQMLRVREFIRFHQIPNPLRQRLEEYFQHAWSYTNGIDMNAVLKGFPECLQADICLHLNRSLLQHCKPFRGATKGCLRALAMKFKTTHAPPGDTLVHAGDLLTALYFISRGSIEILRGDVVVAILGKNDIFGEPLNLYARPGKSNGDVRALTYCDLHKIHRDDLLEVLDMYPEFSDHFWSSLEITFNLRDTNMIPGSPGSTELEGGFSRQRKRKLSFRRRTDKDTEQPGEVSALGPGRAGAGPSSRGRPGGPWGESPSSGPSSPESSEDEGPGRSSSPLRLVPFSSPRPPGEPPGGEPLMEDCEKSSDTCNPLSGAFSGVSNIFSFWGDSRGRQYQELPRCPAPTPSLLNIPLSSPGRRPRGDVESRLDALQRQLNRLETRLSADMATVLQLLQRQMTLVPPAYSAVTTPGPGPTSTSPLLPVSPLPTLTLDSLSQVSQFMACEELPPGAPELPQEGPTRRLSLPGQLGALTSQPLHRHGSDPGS
row,SMILES,"hERG current change (%, negative = inhibition) at 10uM [%]"
1,CCc1nc(SCC(=O)Nc2ccccc2C(=O)OC)n[nH]1,10.3
2,O=C(Cn1nnc(-c2ccccc2F)n1)NCCc1ccccc1,-6.61
3,COc1ccc(N(CC(=O)Nc2cccc3ccccc23)S(C)(=O)=O)c(OC)c1,-4.5
4,CCN(CC(=O)NCc1ccncc1)S(=O)(=O)c1cc(Cl)ccc1Cl,-21.4
5,COc1ccc(Cc2nnc3n2N=C(c2cc4ccccc4o2)CS3)cc1OC,-1.14
6,Cc1cc(C)c(N=C2SCC(=O)N2Cc2ccco2)c(C)c1,-14
7,c1ccc(-c2csc(-n3cnnn3)n2)cc1,-8.83
8,COC(=O)c1ccc(Cn2cc(C(F)(F)F)cc([N+](=O)[O-])c2=O)cc1,14.1
9,O=C(Nc1c(-c2ccc(F)cc2)nc2ccccn12)c1ccc(F)cc1,-14.8
10,CCC(=O)Nc1nc(C)c(C(=O)NC2CCCCC2)s1,5.95
11,CCC(NC(=O)c1ccncc1)c1ccccc1 (stereo not drawn),16
12,Cc1cc(C)n(C(C)CNS(=O)(=O)c2ccc(Cl)cc2)n1 (stereo not drawn),15.1
13,CCOc1ccc(/C=N/NC(=O)c2cc3ccccc3cc2OC)cc1,-14.3
14,CC(CC(=O)NC1CCCCC1)S(=O)(=O)c1ccc2c(c1)NC(=O)CO2 (stereo not drawn),5.72
15,O=C(O/N=C1/CCCc2occc21)c1ccc(Cl)cc1Cl,11.7
16,C[n+]1cc(-c2ccccc2)n2c1CCCCC2.[I-],4.03
17,COc1ccc(/C=N/NC(=O)c2ccc(NC(=O)c3ccccc3Br)cc2)cc1,6.43
18,COc1cc(OC)c(OC)cc1CNCCSc1nnnn1C.Cl,18.8
19,COc1cc(/C=C(\NC(=O)c2ccccc2)C(=O)NC(C(=O)O)c2ccccc2)cc(OC)c1OC (stereo not drawn),0.146
20,COc1ccc(-c2cc(=O)oc3c(O)c(O)ccc23)cc1,4.01
21,CCN(CC)CCCNC(=S)N(CCCO)Cc1cc2cc3c(cc2[nH]c1=O)OCO3,17.8
22,CCCC(=O)Nc1ccccc1Sc1ncnc2scc(-c3ccccc3)c12,1.51

row,SMILES,"hERG current change (%, negative = inhibition) at 10uM [%]"
1,O=C(COC(=O)/C=C/c1ccc([N+](=O)[O-])cc1)NCc1ccc2c(c1)OCO2,30
2,Cc1cc(=O)[nH]c(SCc2ccccc2)n1,27
3,CCOc1cccc(OCCNC2CCCC2)c1.O=C(O)C(=O)O,5.28
4,O=[N+]([O-])c1ccc(/C=[N+](\[O-])[C@@H]2CCCC[C@@H]2/[N+]([O-])=C/c2ccc([N+](=O)[O-])o2)o1,-42.7
5,CCOC(=O)c1c(C)nsc1NC(=O)C1CCCCC1,17.3
6,CCC1CCCCN1C(=O)c1noc(C(C)C)c1[N+](=O)[O-] (stereo not drawn),8.5
7,Cc1ccccc1CS(=O)(=O)Cc1ccc(C(=O)NCCc2ccccc2)o1,-20.3
8,C[n+]1ccccc1/C=C/c1ccccc1Cl.[I-],10.4
9,CCOC(=O)C1=C(N)N(c2ccc(C)cc2)C2=C(C(=O)CCC2)C1c1cccs1 (stereo not drawn),-12.6
10,O=C(COc1ccccc1)Nc1ccncc1,21.9
11,C/C=C/C(=O)OCC(=O)Nc1cc([N+](=O)[O-])ccc1Cl,-16.3
12,COc1ccccc1CCNC(=O)CNC(=O)c1ccc2ccccc2c1,-9.21
13,COc1ccccc1C(=O)Nn1cnc2ccccc2c1=O,20.6
14,CCc1ccc(N(C(=O)c2csnn2)C(C(=O)NC2CCCC2)c2cccnc2)cc1 (stereo not drawn),-24.9
15,COC(=O)C1=C(CN2CCN(C)CC2)NC(=O)NC1c1cc(C)ccc1C (stereo not drawn),-41
16,CC(=O)[C@@H]1[C@@H]2C(=O)N(c3ccccc3F)C(=O)[C@@H]2[C@H]2c3ccccc3C=NN12,-1.47
17,C/C=C(\C)C(=O)NCCN1C2=NC[C@H](C)N2C[C@@H]1Cc1ccc(OC)cc1,-4.7
18,CCN(CC)CCNC(=O)C(=O)Nc1cc2c3c(c1)CCC(=O)N3CCC2,20.6
19,CCC(C)NC(=S)N1CCN(Cc2ccc3c(c2)OCO3)CC1.O=C(O)C(=O)O (stereo not drawn),-2.09
20,CCc1ccccc1N(CC(=O)N1CCCC1)S(C)(=O)=O,13.8
21,CCCCc1nnc(NC(=O)c2oc3ccc(OC)cc3c2C)s1,-6.76
22,O=c1c2cc(-c3ccccc3)sc2nc2n1N=C(c1ccccc1)CS2,29.2

row,SMILES,"hERG current change (%, negative = inhibition) at 10uM [%]"
1,Cc1cc(Cl)nc(-c2ccccc2)n1,11.5
2,CCOC(=O)N1CCN(C2=CC(=O)OC23CCCCC3)CC1,0.9
3,CC(Oc1ccc2c(c1)oc(=O)c1ccccc12)C(=O)NCCCN1CCOCC1 (stereo not drawn),-36.6
4,CCOC(=O)c1oc2ccccc2c1NC(=O)COc1cccc(OC)c1,10.4
5,COc1ccccc1C1=CC(=O)C[C@H](c2ccc(F)cc2)C1,-1.61
6,Cc1ccc(-c2nc3c(=O)n(-c4ccccc4)c4c(c(=O)n(C)c(=O)n4C)c3o2)cc1,4.81
7,COC(=O)C1=C(C)N(CCCC(=O)O)C(=O)NC1c1cc2c(cc1[N+](=O)[O-])OCO2 (stereo not drawn),16.4
8,COc1ccc(CN(C)CC(=O)Nc2ccc(SC(F)F)cc2)cc1OC,-76.2
9,CCCN1C(=O)/C(=C/c2c(N3CCNC(=O)C3CC(=O)OCC)nc3c(C)cccn3c2=O)SC1=S (stereo not drawn),-13.1
10,CCC(=O)c1ccc(OCC(=O)N2CCCC2)c(OC)c1,-22.5
11,CCOc1ccc(CCNC(=O)CCCN2C(=O)c3ccccc3C2=O)cc1OCC,0.331
12,CCNC(=O)c1c(NC(C)=O)sc2c1CCCC2,-5.36
13,COc1ccc(CC(=O)N/N=C/c2ccc(-c3cccc(C(=O)O)c3)o2)cc1OC,3.33
14,Cc1cc(=O)oc2cc(NC(=O)c3cccc(S(C)(=O)=O)c3)ccc12,15.1
15,COc1cc(/C=N/NC(=O)c2cccnc2)ccc1OCC(=O)Nc1ccccc1Cl,18.8
16,O=S(=O)(NCc1cccnc1)c1cccc2nsnc12,-13.8
17,COc1cc(C(=O)N2CCN(C/C=C/c3ccccc3)CC2)cc(OC)c1OC,-35
18,C=CCn1c(SCC#N)nc2c(c1=O)C(C)(C)Cc1ccccc1-2,-0.613
19,NS(=O)(=O)c1ccc(CCNc2nc3c(-c4cccc(F)c4)nnn3c3ccccc23)cc1,21.5
20,O=C(/C=C/c1cccs1)N1CCCCC1,6.64
21,CCCCc1cc(=O)oc2cc(OCc3nn[nH]n3)ccc12,0.904
22,CCCC(=O)Nc1c(-c2ccccc2)c(=O)c(C)nn1-c1ccccc1,10.3

row,SMILES,"hERG current change (%, negative = inhibition) at 10uM [%]"
1,C=CC1C(N2CCOCC2)C(C)(C)S1(=O)=O (stereo not drawn),1.81
2,O=C(Nc1nc(-c2ccc3c(c2)OCO3)cs1)c1ccncc1,-0.461
3,O=C(NCc1ccco1)C1CCN(C(=O)c2cc3sccc3n2Cc2ccc(Cl)cc2)CC1,-64.8
4,O=C(CCc1nc2ccccc2c(=O)[nH]1)N1CCN(S(=O)(=O)c2ccccc2Br)CC1,-51.3
5,CC(C)OP(=O)(OC(C)C)C(NCc1ccccc1)c1ccccc1.Cl (stereo not drawn),-21.9
6,O=c1c2ccccc2nc(SCc2ccc([N+](=O)[O-])cc2)n1-c1ccccc1,10.9
7,Cc1ccc[n+](-c2[nH]c(=O)sc2/C=N/N=C(\[O-])CCn2c3ccccc3c3ccccc32)c1,8.86
8,CCOCCCn1c(=NC(=O)c2ccc(OC)c(OC)c2)c(C#N)cc2c(=O)n3cccc(C)c3nc21,-63.4
9,O=C(CN1C(=O)NC2(CCCC2)C1=O)Nc1ccccc1C(F)(F)F,14.3
10,COc1ccc(CC(=O)OCC(=O)c2c[nH]c3ccccc23)cc1,-4.64
11,CC(=O)c1ccc(NC(=O)C(C)N(C)CC(=O)Nc2ccccc2Cl)cc1 (stereo not drawn),-0.0331
12,COc1ccc(S(=O)(=O)Nc2cc(Cl)ccc2-n2cncn2)cc1,-0.298
13,COc1cc(NC(=O)CSc2nc(C)cs2)cc(OC)c1,-1.09
14,COc1ccc(-c2cc(=O)c3c(OC)c(OC)c(OC)c(OC)c3o2)cc1OC,-14.9
15,CC1CC(C)CN(S(=O)(=O)c2ccc(NC(=O)CN3C(=O)NC(C)(c4ccccc4)C3=O)cc2)C1 (stereo not drawn),7.75
16,O=C(NC1CC1)c1ccc(-c2ccccc2)cc1,19.2
17,COc1ccc(N2CC(NC(=O)N3CCN(c4ccccc4)CC3)CC2=O)cc1 (stereo not drawn),-23.5
18,CCOC(=O)c1c(NC(=O)C2CCCO2)sc2c1CCC2 (stereo not drawn),-8.39
19,O=C(O)c1ccccc1-c1ccccc1C(=O)NCc1ccccc1Cl,-37.6
20,O=C(NNC(=O)c1cccnc1)Nc1ccc(Cl)c(Cl)c1,8
21,CCOC(=O)CN1C(=O)N[C@@H](c2cccc(C(F)(F)F)c2)[C@@H](C(=O)OC)[C@H]1C,5.95
